In PubChem BioAssay AID493078 (National Center for Advancing Translational Sciences (NCATS), 2011):
Inconclusive results, whose numbers are uncertain, are shown with a selection of clear calls. No potency is given beside an inconclusive call; the fits are too rough. The source made the active and inactive calls. Calls come from the whole dose curve; as a rule, active = well fitted activation curve with a large enough effect; inconclusive = small, poorly fitted or top-dose-only effect; inactive = flat fitted curve, though single readings scatter.

What follows are compounds tested against Thyrotropin-releasing hormone receptor (Homo sapiens) (UniProt P34981) (assay: qHTS for Small Molecule Agonists and Allosteric Enhancers of Human TRH Receptor: Confirmation Screen for Agonists). Details: TRHR-expressing cells, agonist activation read-out; series mostly up to 46.1 µM; activation: at the top concentration.
Sequence of UniProt P34981 (P34981 whole entry, looked up): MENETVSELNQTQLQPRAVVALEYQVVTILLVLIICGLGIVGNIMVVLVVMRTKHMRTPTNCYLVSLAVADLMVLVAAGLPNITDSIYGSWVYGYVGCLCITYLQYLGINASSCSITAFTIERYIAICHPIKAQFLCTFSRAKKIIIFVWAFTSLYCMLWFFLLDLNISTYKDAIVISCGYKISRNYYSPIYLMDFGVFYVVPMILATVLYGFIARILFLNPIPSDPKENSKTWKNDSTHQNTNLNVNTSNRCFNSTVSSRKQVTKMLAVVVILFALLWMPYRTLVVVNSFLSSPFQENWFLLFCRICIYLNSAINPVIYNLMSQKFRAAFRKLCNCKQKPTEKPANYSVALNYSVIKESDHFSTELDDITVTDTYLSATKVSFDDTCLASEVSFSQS
Source text: NIH Chemical Genomics Center [NCGC]
NIH Molecular Libraries Probe Centers Network [MLPCN]
Assay Submitter (PI): Marvin Gershengorn
This project aims to identify small drug-like molecules that activate (agonists) the thyrotropin releasing hormone (TRH) receptor (TRHR) or enhance its TRH-stimulated activity (allosteric enhancers). TRHR, a drug-accessible cell surface receptor expressed in specific brain regions, and its ligand TRH have been implicated in several central nervous system disorders, including depression and anxiety. Small molecule TRHR agonists or allosteric enhancers that are metabolically stable and able to cross the blood-brain barrier might serve as probes to elucidate the roles of brain TRH receptors in animal models, and might be valuable as lead compounds for the development of drugs to treat patients with central nervous system disorders.
Upon TRHR-Gq activation in TRHR cells, intracellular calcium is released from stores in the endoplasmic reticulum.
For the HTS assay freshly prepared cells are plated at a density of 2000/well in 3 ul of complete DMEM medium containing 10% serum in 1536-well plates and cultured over night at 37 C in a humidified incubator with 5% CO2. The next day, 2 ul of a no wash calcium dye (ABD Bioquest) was added to the cells and plates were incubated at room temperature for 1 hour. For the assay, assay plates were loaded into the FDSS kinetic plate reader. A 10 cycle (1 second/cycle) baseline measurement is taken and then the FDSS online 1536 pintool delivers 23 nl of compound library (as well as TRH controls) to the plate. The plate is measured for kinetically at 1 cycle/sec for 180 seconds and is considered to be the agonist portion of the assay (eg, compounds which activate a positive calcium response during this portion are flagged as potential agonists). Following the 180 second read, 1 ul of either an EC20 (positive modulation assay) is delivered by an onboard pipette head. Measurements are taken kinetically for an additional 180 seconds.
TRHR FDSS Screening Protocol
1. Reagent, 3 uL 2000 cells/well 1536 TC treated Black plate in media containing 10% FCS
2. Time, 18 hours, 33.5C 5% CO2 (cells grown at 37C)
3. Reagent, 2 uL ABD fluo-8 Ca dye
4. Time, 30 min-1.5hrs hours, Room temp (6 plates/batch)
5. Detector, EX 480/EM 530C, FDSS 10 cycles baseline (1sec/cycle)
6. Compound, 23 nL of stock solution from library
7. Detector, EX 480/EM 530C, FDSS 230 cycles (1sec/cycle) Agonist mode
8. Compound, 1 ul EC20 of TRH made up in HEPES HBSS, 10 nM final
9. Detector, EX 480/EM 530C, FDSS 100 cycles (1sec/cycle) Potentiator mode
Note: nearly all actives have a fitted effect of over 75% in size.
Potency is the fitted concentration of half-maximal effect; tags give direction and shape of the fitted curve.
Throughout, for activation: 0% is about no effect.

Row | SMILES | Potency | activation
1 | CCC1(C)OC(c2ccccc2)=C/C(=C/C=C2C(=O)NC(=O)NC2=O)O1 (centres undefined) | inconclusive [activator, partial curve] | –
2 | O=C1NC(=O)N(c2cccc(Cl)c2)C(=O)/C1=C\c1ccc(Sc2nc3ccccc3[nH]2)o1 | inconclusive [activator, partial curve] | –
3 | C=CCn1c(=O)/c(=C\c2ccccn2)s/c1=C(/C#N)C(=O)NCC1CCCO1 (centres undefined) | inconclusive [activator, partial curve, poor fit] | –
4 | CN1CCN(c2ccc(N)cc2)CC1 | – | inactive: -0.259%
5 | CCOc1ccc(N2C(=O)NC(=O)/C(=C\c3ccc(N4CCCCC4)o3)C2=O)cc1 | active: 23.1 µM | –
6 | CC1(C)OC(c2ccccc2)=C/C(=C/C=C2C(=O)NC(=O)NC2=O)O1 | inconclusive [activator, full curve, poor fit] | –
7 | C[C@H]1C(=O)O[C@@H]2CCN3CC=C(COC(=O)[C@](C)(O)[C@]1(C)O)[C@H]23 | – | inactive: -0.726%
8 | Cn1c(O)c(/C=C/C=Nc2ccccc2)c(=O)n(C)c1=S | – | inactive: 30%
9 | CN1CC=C2C(C#N)=C(N)C(C#N)(C#N)C(c3ccncc3)C2C1 (centres undefined) | inconclusive [activator, partial curve, poor fit] | –
